Binding data for eight substances are collected here from PMC10914751.

The chains behind the UniProt entries cited, without tags or fusion partners.
UniProt Q16531: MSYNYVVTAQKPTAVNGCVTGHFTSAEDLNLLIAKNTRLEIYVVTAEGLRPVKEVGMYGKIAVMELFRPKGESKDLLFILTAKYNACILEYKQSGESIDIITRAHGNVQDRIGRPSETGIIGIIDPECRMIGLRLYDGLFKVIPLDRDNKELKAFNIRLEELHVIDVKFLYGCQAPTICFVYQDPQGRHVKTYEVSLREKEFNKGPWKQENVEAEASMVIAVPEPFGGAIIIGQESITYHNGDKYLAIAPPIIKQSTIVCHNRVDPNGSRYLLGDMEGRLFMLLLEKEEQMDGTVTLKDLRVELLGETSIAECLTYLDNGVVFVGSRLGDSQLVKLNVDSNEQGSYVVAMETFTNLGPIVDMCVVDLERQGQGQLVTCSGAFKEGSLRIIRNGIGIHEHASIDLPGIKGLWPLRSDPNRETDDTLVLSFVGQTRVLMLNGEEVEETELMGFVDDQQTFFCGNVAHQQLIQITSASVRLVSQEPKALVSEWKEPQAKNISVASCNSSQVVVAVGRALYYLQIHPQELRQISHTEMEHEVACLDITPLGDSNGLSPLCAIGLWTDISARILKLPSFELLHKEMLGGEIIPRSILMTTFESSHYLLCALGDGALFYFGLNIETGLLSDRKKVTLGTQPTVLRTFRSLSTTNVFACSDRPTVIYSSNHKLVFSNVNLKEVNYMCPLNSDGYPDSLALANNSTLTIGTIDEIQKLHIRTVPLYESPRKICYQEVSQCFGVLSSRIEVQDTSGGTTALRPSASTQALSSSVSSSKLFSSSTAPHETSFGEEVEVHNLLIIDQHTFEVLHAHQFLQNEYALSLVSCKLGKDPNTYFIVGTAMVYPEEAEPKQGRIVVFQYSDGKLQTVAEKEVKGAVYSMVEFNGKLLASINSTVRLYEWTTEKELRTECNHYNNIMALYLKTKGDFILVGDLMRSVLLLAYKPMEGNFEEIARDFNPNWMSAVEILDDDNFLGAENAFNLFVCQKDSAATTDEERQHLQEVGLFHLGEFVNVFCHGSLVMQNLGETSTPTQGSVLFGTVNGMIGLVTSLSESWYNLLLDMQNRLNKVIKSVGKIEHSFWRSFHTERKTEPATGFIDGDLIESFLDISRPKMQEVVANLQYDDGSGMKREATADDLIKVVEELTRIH
UniProt P05928: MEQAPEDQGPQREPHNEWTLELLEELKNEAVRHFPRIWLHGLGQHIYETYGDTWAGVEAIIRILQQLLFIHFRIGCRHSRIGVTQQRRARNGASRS
UniProt P12520: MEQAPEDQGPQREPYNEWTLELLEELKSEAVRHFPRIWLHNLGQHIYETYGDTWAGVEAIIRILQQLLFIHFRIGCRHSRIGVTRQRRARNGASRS
UniProt Q9Y4B6: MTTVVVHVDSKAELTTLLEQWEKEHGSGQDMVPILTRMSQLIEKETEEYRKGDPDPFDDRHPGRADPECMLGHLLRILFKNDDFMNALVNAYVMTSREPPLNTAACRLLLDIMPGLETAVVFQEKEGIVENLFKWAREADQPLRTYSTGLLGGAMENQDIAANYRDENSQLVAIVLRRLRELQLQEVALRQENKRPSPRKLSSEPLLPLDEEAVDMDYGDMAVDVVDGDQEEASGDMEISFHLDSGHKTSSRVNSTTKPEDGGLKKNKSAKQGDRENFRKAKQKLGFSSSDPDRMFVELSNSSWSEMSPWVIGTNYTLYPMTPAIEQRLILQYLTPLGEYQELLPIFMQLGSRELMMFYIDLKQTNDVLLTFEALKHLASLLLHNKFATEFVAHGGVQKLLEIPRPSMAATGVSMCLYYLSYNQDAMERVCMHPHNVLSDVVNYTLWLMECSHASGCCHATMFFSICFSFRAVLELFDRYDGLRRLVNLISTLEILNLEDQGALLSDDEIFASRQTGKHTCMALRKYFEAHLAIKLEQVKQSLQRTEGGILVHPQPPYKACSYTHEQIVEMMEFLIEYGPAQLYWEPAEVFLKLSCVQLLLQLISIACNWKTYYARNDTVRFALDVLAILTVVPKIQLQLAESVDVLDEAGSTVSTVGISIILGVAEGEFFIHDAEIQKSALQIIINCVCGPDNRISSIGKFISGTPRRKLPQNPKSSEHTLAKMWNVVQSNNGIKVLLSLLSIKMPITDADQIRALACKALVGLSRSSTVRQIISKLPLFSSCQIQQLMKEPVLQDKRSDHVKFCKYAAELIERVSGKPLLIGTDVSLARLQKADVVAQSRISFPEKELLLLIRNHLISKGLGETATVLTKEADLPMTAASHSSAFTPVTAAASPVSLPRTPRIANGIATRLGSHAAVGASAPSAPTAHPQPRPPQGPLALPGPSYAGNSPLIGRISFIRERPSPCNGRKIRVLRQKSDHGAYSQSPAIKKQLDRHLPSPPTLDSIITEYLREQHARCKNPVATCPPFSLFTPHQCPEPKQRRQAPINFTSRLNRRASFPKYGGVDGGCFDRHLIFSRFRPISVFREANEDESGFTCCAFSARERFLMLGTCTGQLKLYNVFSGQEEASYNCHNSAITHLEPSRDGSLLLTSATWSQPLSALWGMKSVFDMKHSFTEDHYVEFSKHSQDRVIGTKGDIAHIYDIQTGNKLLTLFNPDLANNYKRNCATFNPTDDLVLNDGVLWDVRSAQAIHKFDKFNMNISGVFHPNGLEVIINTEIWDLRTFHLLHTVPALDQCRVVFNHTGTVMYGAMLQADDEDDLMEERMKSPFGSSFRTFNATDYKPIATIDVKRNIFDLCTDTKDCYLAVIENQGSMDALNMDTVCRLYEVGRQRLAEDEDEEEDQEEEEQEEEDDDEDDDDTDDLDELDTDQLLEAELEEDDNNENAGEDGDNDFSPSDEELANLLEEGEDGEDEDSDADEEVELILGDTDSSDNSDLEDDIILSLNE

Results are given in words; binding and its absence hold for the method and conditions named. In cells and extracts the contact can be indirect. Some binding calls cover weakened binding; strength is not graded here.

Assay [1] addresses T1, full-length Plk4 (transfected) (UniProt O00444).
T1 sequence: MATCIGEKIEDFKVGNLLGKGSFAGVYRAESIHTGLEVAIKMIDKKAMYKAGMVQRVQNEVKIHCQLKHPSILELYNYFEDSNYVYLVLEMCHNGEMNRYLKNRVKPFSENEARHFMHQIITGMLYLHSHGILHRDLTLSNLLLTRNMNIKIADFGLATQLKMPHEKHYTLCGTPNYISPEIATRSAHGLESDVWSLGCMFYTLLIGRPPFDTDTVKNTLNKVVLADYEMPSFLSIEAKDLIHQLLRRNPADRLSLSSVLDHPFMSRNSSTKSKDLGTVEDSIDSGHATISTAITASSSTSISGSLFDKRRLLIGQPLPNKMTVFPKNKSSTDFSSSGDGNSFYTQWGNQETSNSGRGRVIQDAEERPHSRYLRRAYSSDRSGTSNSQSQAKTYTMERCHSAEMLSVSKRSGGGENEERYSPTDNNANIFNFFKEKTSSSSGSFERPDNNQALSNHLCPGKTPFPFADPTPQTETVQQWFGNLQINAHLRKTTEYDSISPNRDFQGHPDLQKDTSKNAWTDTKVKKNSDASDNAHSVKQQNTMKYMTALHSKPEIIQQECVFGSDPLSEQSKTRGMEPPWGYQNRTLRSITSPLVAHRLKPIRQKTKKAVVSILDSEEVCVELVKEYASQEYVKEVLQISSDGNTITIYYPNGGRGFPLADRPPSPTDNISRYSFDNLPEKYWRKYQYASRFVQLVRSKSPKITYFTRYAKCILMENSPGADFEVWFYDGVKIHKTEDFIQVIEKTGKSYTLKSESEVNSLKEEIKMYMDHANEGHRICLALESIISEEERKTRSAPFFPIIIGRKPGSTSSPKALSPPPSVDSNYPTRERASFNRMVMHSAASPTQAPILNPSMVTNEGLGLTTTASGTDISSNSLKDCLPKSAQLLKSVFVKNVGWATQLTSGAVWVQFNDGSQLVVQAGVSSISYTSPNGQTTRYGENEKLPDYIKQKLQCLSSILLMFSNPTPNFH
The assay can be described thus: co-IP; HEK293T cells transfected with the indicated constructs; TBSN buffer (20 mM Tris-HCl pH 8.0, 120 mM NaCl, 0.5% Nonidet P-40, 5 mM EGTA, 1.5 mM EDTA, 2 mM DTT); immunoblot; Supplementary Fig. 2b under thymidine or nocodazole treatment.

Assay [2] has as its target T2, Plk4 (endogenous) (human (endogenous in HEK293T, CEM-SS, HEK293)) (UniProt O00444).
T2 sequence: T1 sequence
The assay can be described thus: co-IP; CEM-SS cells infected with HIV-1 and treated with 200 nM centrinone for 3 h; endogenous Plk4 precipitated with mouse anti-Plk4 (6H5) antibody; immunoblot.

Assay [3] has as its target T2, Plk4 (endogenous) (human (endogenous in HEK293T, CEM-SS, HEK293)). The assay can be described thus: co-IP.
Assay [4] addresses T3, Plk4 CTD (transfected, Fig. 2b) (UniProt O00444).
T3 sequence: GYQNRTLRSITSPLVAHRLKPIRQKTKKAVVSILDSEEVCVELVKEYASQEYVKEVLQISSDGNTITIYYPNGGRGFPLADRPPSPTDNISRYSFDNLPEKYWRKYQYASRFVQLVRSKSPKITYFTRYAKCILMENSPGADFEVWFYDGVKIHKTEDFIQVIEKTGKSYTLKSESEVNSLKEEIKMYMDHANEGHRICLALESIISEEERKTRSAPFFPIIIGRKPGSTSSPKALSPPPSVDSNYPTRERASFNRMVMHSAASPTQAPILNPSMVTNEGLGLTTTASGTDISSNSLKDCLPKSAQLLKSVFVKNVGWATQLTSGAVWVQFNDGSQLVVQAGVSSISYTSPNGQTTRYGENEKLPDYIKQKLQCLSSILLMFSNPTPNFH
The assay can be described thus: co-IP; HEK293T cells transfected with the indicated constructs; TBSN buffer (20 mM Tris-HCl pH 8.0, 120 mM NaCl, 0.5% Nonidet P-40, 5 mM EGTA, 1.5 mM EDTA, 2 mM DTT); immunoblot; Supplementary Fig. 2b under thymidine or nocodazole treatment.

Regarding “DDB1 (co-immunoprecipitation in HEK293T) (from UniProt Q16531 1-1140)”, in assay [1], the binding result is “binds”.

Turning to “FLAG-Vpr (Lai strain) (from UniProt P05928 1-96)”, the binding result in assay [1] was “binds”.

As for “HIV-1 Vpr (NL4-3), transfected (from UniProt P12520 1-96)”, the binding result in assay [1] was “binds”.

For “Vpr expressed from HIV-1 in infected CEM-SS cells (from UniProt P12520 1-96)”, the binding entry in assay [2] is “binds”.

As to “Vpr expressed from lentiviruses in HEK293 cells (from UniProt P12520 1-96)”, the binding entry in assay [3] is reported as “binds”.

“VprBP (endogenous) (from UniProt Q9Y4B6 1-1507)”: the binding entry in assay [3] and in assay [2] was “binds” throughout.

For the substance “VprBP (transfected; construct not specified in the text) (from UniProt Q9Y4B6 1-1507)”, in assay [1], the binding result is on record as “binds”.

With “full-length VprBP (transfected) (from UniProt Q9Y4B6 1-1507)”, the binding result in assay [4] is on record as “binds”.
